# Out of some 94,000 compounds screened, about 4,000 (4.3%) were called active. The shares of active, inactive and inconclusive entries below differ from those in the screen. Calls come from the whole dose curve; as a rule, active = well fitted inhibition curve with a large enough effect; inconclusive = small, poorly fitted or top-dose-only effect; inactive = no such curve, though single readings can be large or run the other way. Where the call is inconclusive, the potency comes from a doubtful curve fit.
# Test: Cytotoxic Profiling in NIH 3T3 Cell Line of Diverse Libraries Using Quantitative High-Throughput Screening; note: nearly all actives have a fitted effect of over 55% in size
# Settings: NIH 3T3 viability, CellTiter-Glo ATP luminescence, 48-72 h; series mostly up to 96.7 µM
# Procedure, shortened: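 Cytotoxicity is measured as loss of cellular ATP: NIH 3T3 cells (400/well) are exposed to compound for 48 or 72 hr at 37 °C, then CellTiter-Glo luminescence is imaged after 10 min at room temperature.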
# Potency is the fitted concentration of half-maximal effect; tags give direction and shape of the fitted curve.
row,Compound,Potency
1,Cc1c(-c2ccccc2)[nH]c2c(CNC(=O)CCn3cnnn3)cc(Cl)cc12,"inconclusive: 35.5 µM [inhibitor, full curve]"
2,Cc1oc2c(c1C(=O)NCc1ccncc1)CN(Cc1cccc(F)c1)CC2,inactive
3,O=C(NC(C(=O)N1CCCCC1)C1CCN(C(=O)c2ccccc2)CC1)c1ccccc1Cl (stereo unspecified),"inconclusive: 70.8 µM [inhibitor, single point]"
4,Cc1ccc(CNC(=O)c2ccc3c(c2)N(C)C2CCCCCN2C3=O)cc1C (stereo unspecified),"inconclusive: 56.2 µM [inhibitor, partial curve, poor fit]"
5,O=C1c2c(nc(CNCc3ccc4c(c3)OCO4)n2Cc2ccccc2)NCCN1Cc1ccccc1,"inconclusive: 56.2 µM [inhibitor, partial curve, poor fit]"
6,CS(=O)(=O)N1C[C@H]2CCN(Cc3cn[nH]c3-c3ccccc3)C[C@H]21,inactive
7,CN1CCN(C(=O)c2cc(-c3ccc(C(F)(F)F)cc3)nc3c2cnn3C)CC1,"inconclusive: 50.1 µM [inhibitor, partial curve, poor fit]"
8,O=C(COc1ccc(Cl)cc1Cl)N1CCCCC1c1ccccn1 (stereo unspecified),"inconclusive: 56.2 µM [inhibitor, partial curve, poor fit]"
9,Cc1ccc(NC(=O)N2CCc3c(C(=O)NC(C)c4cccnc4)cccc32)cc1 (stereo unspecified),"inconclusive: 56.2 µM [inhibitor, single point]"
10,Cc1ccc2c(c1)N1C(=O)OC[C@@H]1CCN(Cc1cccc(Cl)c1)C2,"inconclusive: 63.1 µM [inhibitor, full curve, poor fit]"
11,O=C(NCc1cccc(C(F)(F)F)c1)c1nc2sccn2c1-c1ccccc1,"inconclusive: 70.8 µM [inhibitor, single point]"
12,COc1cccc(C(=O)N2CCCC2c2nc(C3CCOCC3)no2)c1 (stereo unspecified),inactive
13,O=C(NCCc1ccc(Cl)cc1)C1CCN(Cc2ccccc2-c2ccccc2F)CC1,"inconclusive: 15.8 µM [inhibitor, full curve]"
14,CC(=O)c1ccc(NC(=O)N[C@H]2CO[C@H]3[C@@H]2OC[C@@H]3n2nnnc2-c2ccc(N(C)C)cc2)cc1,"inconclusive: 11.2 µM [inhibitor, full curve, poor fit]"
15,N#Cc1cccc(-c2c(C(=O)NCC3CCCCC3)nc3sccn23)c1,"inconclusive: 50.1 µM [inhibitor, partial curve, poor fit]"
16,O=C(NCc1cccc(C(F)(F)F)c1)c1cc(-c2ccc(F)cc2)c2nncn2n1,"inconclusive: 39.8 µM [inhibitor, partial curve]"

# Source: PubChem BioAssay AID1345082 (National Center for Advancing Translational Sciences (NCATS), 2018)
